This is an account of results in PubChem BioAssay AID1963576 (National Center for Advancing Translational Sciences (NCATS), 2024).

Molecules are shown by their SMILES. The campaign covered roughly 46,000 compounds. About 60 (0.1%) were called active. Roughly 3% stayed inconclusive and do not appear here. The call rests on the fitted dose curve; in most records, active means well fitted inhibition curve with a large enough effect; inconclusive means small, poorly fitted or top-dose-only effect; inactive means no such curve, though single readings can be large or run the other way. Some of the results follow.

This experiment is described as follows: Primary qHTS assay for Inhibitors of ovarian cancer metastasis using an organotypic tumor microenvironment (TME) model. Further: nearly all actives have a fitted effect of over 65% in size.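 On activity change, negative = inhibition: plate controls were DMSO wells for no effect and tomatine positive control wells for full effect.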 To be noted: SKOV3ip1-GFP adhesion/invasion on 3D omental model, fluorescence; series mostly up to 45.8 µM; activity change, negative = inhibition: at the top concentration. Put shortly: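 qHTS, 4-pt dose (0.36-46 umol/L); SKOV3ip1-GFP, 1,200 cells/well, no FBS; primary omental fibroblast/mesothelial co-culture 48 h pre-grown; 2 h RT + 16 h 37 C; PBS wash, 4% PFA; GFP count 488/509 nm.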
Turning to `CCCCCN1C(C(=O)c2ccccc2)=C(NC(=O)c2ccc(OC)cc2)c2ccccc2S1(=O)=O`, the “activity change, negative = inhibition” value was inactive: 5.03%. The same measure, in the same setting: under `COc1ccc(NC(=O)c2ccc(-c3nc(CSc4ccc(C)cc4)c(C)o3)cc2)cc1Cl` stands inactive: 1.25%. Regarding `CCN(c1cccc(C)c1)S(=O)(=O)c1ccc(N2CCCCS2(=O)=O)cc1`, the compound was called inactive.

For the compound `COc1ccccc1C(=O)Oc1c(Sc2ccccc2)c(C)nn1C(C)(C)C`, the “activity change, negative = inhibition” value is inactive: -4.91%. `Cc1ccc(NC(=O)c2cc(S(=O)(=O)N(C)C3CCCCC3)ccc2F)cc1C`: the “activity change, negative = inhibition” value was inactive: -0.898%.

Turning to `COc1ccc(-c2c3c(=O)n(C)c(=O)n(C)c3c3n2-c2ccccc2NC3c2ccc(OC)cc2)cc1` (configuration not stated), the “activity change, negative = inhibition” value was inactive: 1.98%. With `COc1ccc(CNc2nc(SCc3ccc(Cl)cc3)nc3ccccc23)cc1`, the call was inactive. Regarding `CCC(=O)N1CCc2cc(S(=O)(=O)NC(C(=O)NCCc3ccccc3)C(C)C)ccc21` (configuration not stated), the “activity change, negative = inhibition” value was inactive: 4.3%. On the same count and under the same terms, for `Cc1cc(C)c(NC(=O)C(C)n2c(=O)c(C(F)(F)F)nc3ccccc32)c(C)c1` (configuration not stated) the value was inactive: 0.82%. `COc1ccc(OC)c2sc(NC(=O)c3ccc(S(=O)(=O)N4CCCC4)cc3)nc12`: the compound was classed as inactive.

`Cc1cccc(-n2ncc(C(=O)N3CCN(C4CCCCC4)CC3)c2C2CCN(C(=O)OC(C)(C)C)CC2)c1`: the “activity change, negative = inhibition” value is inactive: -10.1%. Consider `CCOC(=O)CC(NC(=O)CCc1c(C)nc2c(c(C)nn2-c2ccc(C)c(C)c2)c1C)c1ccc(C)cc1` (configuration not stated), for which the compound was classed as inactive. Consider `Cc1cc(C)cc(OCC(=O)Nc2nc3c(s2)CC(C(C)(C)C)CC3)c1` (configuration not stated), for which the “activity change, negative = inhibition” value is inactive: -7.21%.

For the compound `CCOc1ccc(NC(=O)CSC2=Nc3ccccc3C3=NC(CCC(=O)NCc4ccccc4)C(=O)N23)cc1` (configuration not stated), the “activity change, negative = inhibition” value is inactive: -2.94%. Regarding `Cc1ccc(CNC(=O)c2ccc3c(c2)nc(C)n3-c2cccc(F)c2)cc1`, the “activity change, negative = inhibition” value is inactive: -5.58%. `Cc1c(Cl)cccc1NC(=O)c1cccc(NC(=O)N2CCSc3ncccc32)c1`: the “activity change, negative = inhibition” value is inactive: -1.94%. `CC(NC(=O)c1ccc2c(c1)CCN2S(C)(=O)=O)c1ccccc1` (configuration not stated): the result was inactive. On to `CCCCOc1ccc(-c2nn(-c3ccccc3)cc2C2NC(=O)NC(C)=C2C(=O)OCC)cc1` (configuration not stated), for which the “activity change, negative = inhibition” value is inactive: -0.836%. The same measure, in the same setting: under `Cc1cc(C(F)(F)F)n2nc(-c3ccc(Br)cc3)cc2n1` stands inactive: 4.06%; under `C[C@]12CC[C@H](O)CC1=CCC1C2CC[C@]2(C)C(n3cnc4ccccc43)=CCC12` (some centres not stated), inactive: 20.5%. With `Cc1ccc(C(=O)N2c3ccc(C)cc3C(C)(c3ccccc3)CC2(C)C)cc1` (configuration not stated), the call was inactive. Consider `O=C(NCCc1ccccc1)c1cnc2sc(N3CCCCCC3)nn2c1=O`, for which the “activity change, negative = inhibition” value was inactive: -3.98%. For `O=C(c1cc2ccccc2oc1=O)N1CCN(c2ccc(Cl)cc2)CC1`, the “activity change, negative = inhibition” value is inactive: 3.76%. Consider `Cc1cc2oc(C(=O)Nc3ccc(S(N)(=O)=O)cc3)cc(=O)c2cc1C`, for which the “activity change, negative = inhibition” value was inactive: -3.12%. Same read-out and setting: for `COc1ccccc1N1CCN(c2ncnc3c2cnn3-c2cc(Cl)ccc2C)CC1` the value was inactive: -4.81%. For `COc1ccc(OCC(=O)NCc2ccc3c(c2)CCN3C(=O)c2ccccc2)cc1`, the result was inactive. Turning to `Cc1ccc(CSc2nc3ccc(NC(=O)COc4ccccc4)cc3s2)cc1`, the “activity change, negative = inhibition” value is inactive: -5.59%. On the same count and under the same terms, for `CCOC(=O)c1ccc(N2C(=O)c3[nH]nc(-c4ccc(C)cc4)c3C2c2cccc(F)c2)cc1` (configuration not stated) the value was inactive: -34.5%.

For `CCc1cccc(NC(=O)CN2C(=O)COc3ccc(S(=O)(=O)Nc4ccccc4)cc32)c1`, the result was inactive. In the case of `COc1ccc(OC)c(CNC(=O)c2cc3c(-c4ccc(OC)c(OC)c4)nn(C)c3s2)c1`, the “activity change, negative = inhibition” value was inactive: 28%.

For the compound `Cc1ccc(NC(=O)c2ccc(-c3cccc(Cl)c3C)o2)cc1`, the “activity change, negative = inhibition” value is inactive: -2.19%. Still for that read-out and setting: for `CCc1ccc2nc(N(CCN(CC)CC)C(=O)c3ccco3)sc2c1` the value was inactive: -7.26%; for `O=C1OC(C(=O)Nc2cccc(Br)c2)Cc2ccccc21` (configuration not stated), inactive: -3.95%. Same read-out and setting: under `Cc1cccc(-n2ncc(C(=O)N3CCN(c4ccc(Cl)cc4)CC3)c2C2CCN(C(=O)OC(C)(C)C)CC2)c1` stands inactive: -4.14%; under `COc1ccc(CNC(=O)Cn2c(SCC(=O)Nc3ccc(OC)cc3)nc3ccccc32)cc1`, inactive: -1.77%. Consider `Cc1ccc(OCc2nc(-c3ccc(C(=O)N4CCN(c5ccccc5F)CC4)cc3)oc2C)cc1`, for which the outcome was inactive. With `Cn1nc(C(=O)NCc2ccc(Cl)cc2)c2c1-c1ccccc1S(=O)(=O)C2`, the “activity change, negative = inhibition” value was inactive: -5.64%.

With `COc1ccc(Cl)cc1NC(=O)c1cc(S(=O)(=O)NC2CCCCCC2)ccc1F`, the compound was classed as inactive. On to `Cc1ccc(C)c(NC(=O)CN2CCCN(Cc3cccc(Cl)c3)S2(=O)=O)c1`, for which the “activity change, negative = inhibition” value was inactive: -4.38%. Same read-out and setting: for `Cc1cccc(N2C(=O)N(CC(=O)C(C)(C)C)c3ccccc3S2(=O)=O)c1C` the value was inactive: -14.1%; for `CN(C)S(=O)(=O)N(CC(=O)NCCSCc1ccccc1)c1ccccc1`, inactive: 14.4%. For the compound `CCCCCn1c(=O)[nH]c2cc(C(=O)Nc3cc(C)cc(C)c3)ccc2c1=O`, the result was inactive.

As for `CCc1ccc(Sc2cc(C(=O)NCc3ccccc3OC)c3ccccc3n2)cc1`, the “activity change, negative = inhibition” value was inactive: -8.36%.

`Cc1cc(OC(C)C(=O)Nc2c(C(=O)c3ccc(F)cc3)oc3ccccc23)ccc1Cl` (configuration not stated): the result was inactive. `Cc1cccc(NC(=O)CSc2cn(CC(=O)N3CCCCCC3)c3ccccc23)c1`: the compound was called inactive.

For the compound `CCn1c(=O)cc(SCC(=O)NCc2ccc(F)cc2Cl)c2ccccc21`, the “activity change, negative = inhibition” value is inactive: 5.02%. Still for that read-out and setting: under `CCOc1ccc(N2CC(NC(=O)C(=O)c3c[nH]c4ccccc34)CC2=O)cc1` (configuration not stated) stands inactive: -4.31%.
